# In all, about 33,000 sequences were measured (“E-score (-0.5 to 0.5)”: median about -0.056, highest 2% from about 0.38 on). The list shows a part of the results.
# Target: Stb4 (UniProt P50104)
# Assay: PBM E-score (8-mer binding enrichment) (E-score (-0.5 to 0.5)); higher = stronger / more preferred TF binding; most listed sequences are background and not binding sites
# Conditions: protein concentration: 200 nM; construct: GST-DNA-binding domain
# In short: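 Yeast transcription factors, full-length or as DNA-binding domains, were expressed with a GST tag using PURExpress in vitro transcription/translation. At about 100-200 nM they were applied to universal all-10-mer Agilent arrays, double-stranded by primer extension on fresh or once-stripped slides. Fluorescent anti-GST detected bound protein, and masliner normalised the scans. E-scores for ungapped eight-base words, pooled with reverse complements, came from the Universal PBM Analysis Suite.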
row,Sequence,PBM E-score
1,AGACGCCC,0.0523
2,CAAGCCCA,-0.331
3,CAATCGAA,-0.0153
4,TAGAGGCA,-0.263
5,GTTTCTCA,-0.0364
6,AACTGGTG,-0.136
7,AAGCTGGA,-0.242
8,CACCATCA,-0.162
9,TAAAGGGA,-0.112
10,AGATACGG,0.194
11,AAGTCCGA,0.313
12,GATATAGC,0.144
13,AAGAGCCA,-0.0876
14,GACACATC,0.0258
15,CCTTTTAA,-0.0164
16,CTGCGATA,-0.134
17,ATCCAATG,-0.248
18,CTCATGGA,-0.192
19,GGGATGTA,0.109
20,AAGAGACC,0.025
21,GGGGAAAC,0.136
22,GTATTGAC,-0.304
23,ACGACCGA,0.0769
24,GACACTCC,0.0561
25,CCAGGAGC,-0.241

row,Sequence,PBM E-score
1,TCATGAGA,-0.187
2,CAAAGGAG,-0.152
3,CATGACGA,-0.145
4,ATAAAGAG,-0.322
5,AAACGTGT,0.00923
6,GACGGCCA,-0.121
7,GCGCCGTA,0.0577
8,CACTGATG,-0.218
9,CAAGCCGC,-0.0428
10,CCCTGCCC,-0.0678
11,ATTGCATG,-0.045
12,GCTTTGTA,-0.0725
13,ACTTTGAG,-0.161
14,AGTAAATG,0.02
15,AACGATCC,0.0582
16,ACGGTACA,-0.022
17,ATCCCGTC,0.239
18,CAGTCCTC,-0.159
19,AAGGGGGT,-0.328
20,AATGGTCG,0.00338
21,ATCATTCG,0.0803
22,TACCAGCA,-0.0785
23,CACCATAA,-0.121
24,GGGAGCAC,0.159
25,GTATTTTA,0.0257

row,Sequence,PBM E-score
1,ACCTGTGA,-0.135
2,AGGTGTGG,-0.154
3,GTCTAGGA,-0.195
4,AGATGGCG,-0.0367
5,ATAAGTCA,-0.232
6,TCTGAGAA,-0.171
7,ACTTATAA,0.114
8,CAAGCCCG,-0.0424
9,ATCGCGAG,0.0488
10,AGTAGCAG,-0.225
11,GAAGTTAC,0.094
12,CCAATACA,-0.16
13,GATTGTAC,0.0667
14,ACCGTGTG,0.0479
15,GAGGTCTA,-0.101
16,CGCAATCC,0.191
17,AATTACTC,-0.0609
18,GTTAGGCA,-0.266
19,ACTGTCAG,-0.125
20,ACCCCTCT,-0.0103
21,CGGCTTTC,0.234
22,AGCTAGAG,-0.318
23,ACTCCTTC,-0.0656
24,CTAGAGAC,-0.25
25,CTCGGAAG,0.48

row,Sequence,PBM E-score
1,GACCTCTC,0.0438
2,AACTACCG,0.3
3,GATAAACC,0.123
4,GGGGTTGA,-0.168
5,ACATGTGC,-0.11
6,CGGGTCGA,0.279
7,CCTACCGA,0.279
8,AAAGGGTG,-0.126
9,ACGGATTG,0.201
10,GATGCTGC,-0.0385
11,CGTTGGCA,-0.0635
12,AACATCGT,-0.0992
13,CTGACGCC,-0.148
14,CTGCCCCC,-0.325
15,AAAGGTAG,-0.179
16,ACCACCTA,-0.0883
17,ATCCCTAG,-0.189
18,CACTGAAC,-0.116
19,ACGCGGTC,0.0801
20,GCATTGCA,0.0364
21,AAGGGCAC,-0.16
22,CGGAGTCC,0.193
23,CGCGGCTA,0.293
24,ACGCAACC,0.0335
25,ACTCATAA,0.0144

row,Sequence,PBM E-score
1,AGCTCATG,-0.178
2,CTCTAAAG,-0.141
3,CCAAATAG,-0.296
4,CTGAAAAC,-0.0747
5,CATAAATA,-0.131
6,CGGTGTAC,0.0223
7,GAGGTATC,0.0468
8,TCGAACGA,-0.287
9,ATACTGAC,-0.025
10,CGCCCCAC,0.0226
11,AACGAGCC,0.024
12,AGCTTGCC,0.0179
13,AGGACTCC,0.055
14,GCGATGGA,0.141
15,AGTATATA,0.082
16,CCACTAGA,-0.152
17,ACGTGGAG,-0.318
18,CCGGCTAC,0.284
19,AGACTGTC,-0.131
20,CCCACGAG,-0.217
21,CTTGCCTC,0.132
22,ATGCCCTA,-0.097
23,CCTCTTCG,-0.0569
24,ACCGTTAT,-0.0172
25,ACTCATCA,-0.0422

row,Sequence,PBM E-score
1,AATCGATA,-0.122
2,AGGCACCA,-0.186
3,CCTCCAAG,-0.248
4,ATTAACAA,-0.072
5,GAACACCA,0.0969
6,AGAGCCCG,0.0781
7,AATAGTTA,-0.157
8,ACGCCTAC,-0.175
9,GAATGACC,0.145
10,CCTTCCGC,0.306
11,ACCCATCC,0.0282
12,AAGTGGGG,-0.102
13,GAGCAATA,0.0515
14,AGCACTTC,-0.0296
15,CATTAGTA,-0.0878
16,TCGATAGA,-0.149
17,TCATCAAA,-0.192
18,TCGTTAAA,-0.00399
19,CACATCTC,-0.0712
20,AAGTGGAG,-0.19
21,AACGGTGA,0.0142
22,AATACAAT,0.025
23,ATCCGTTC,0.351
24,CACGACGA,-0.218
25,ATGAGATC,-0.124

row,Sequence,PBM E-score
1,CAAATTAA,-0.0577
2,CAAAACGA,-0.19
3,GAGGATCC,0.226
4,GTCTCGTA,-0.115
5,ACACATGC,-0.0497
6,AATCATGC,-0.0782
7,CTCAAGCA,-0.384
8,TAAACAGA,-0.175
9,ATCACCTA,-0.308
10,CATTCTGC,-0.0202
11,TTCGTCAA,-0.00701
12,CCCCATGC,-0.129
13,AAGAACGT,-0.177
14,CTACTATC,0.149
15,ATCAGTAC,-0.0578
16,CAGACCCG,0.331
17,ACGGGCAA,-0.0358
18,GTCTAAAC,0.081
19,CAATTCAG,-0.223
20,GCGTATGA,-0.054
21,AATTATAG,-0.0977
22,AACCAATG,-0.08

# From the supplement of paper PMC3334620
